Reference: the antibiotic and cytotoxicity screens of Wong et al. (2023)
Some of the results follow.

Tests used:
HSkMC = human skeletal muscle cells; assay: cytotoxicity call (relative viability < 0.9); conditions: 10 µM
S. aureus RN4220 = assay: growth inhibition call (relative growth <= 0.2); conditions: 50 µM

Row | Compound | cytotoxicity call (HSkMC) | growth inhibition call (S. aureus RN4220)
1 | C[C@H]1CN([C@@H](C)CO)C(=O)c2cc(NC(=O)NC3CCCCC3)ccc2O[C@H]1CN(C)C(=O)Nc1ccc(C(F)(F)F)cc1 | inactive | inactive
2 | COCCNC(=O)C[C@@H]1CC[C@@H]2[C@@H](COc3ccc(NC(=O)Nc4cccc(F)c4)cc3C(=O)N2C)O1 | inactive | inactive
3 | COc1ccc(S(=O)(=O)N(C)C[C@@H]2Oc3ccc(NS(=O)(=O)c4ccc(F)cc4)cc3C(=O)N([C@H](C)CO)C[C@@H]2C)cc1 | inactive | inactive
4 | Cc1noc(C)c1NC(=O)Nc1cccc2c1O[C@@H](CN(C)Cc1ccc(Cl)c(Cl)c1)[C@@H](C)CN([C@H](C)CO)C2=O | inactive | inactive
5 | C[C@@H]1CCCCO[C@@H](CN(C)S(=O)(=O)c2ccc(F)cc2)[C@@H](C)CN([C@H](C)CO)C(=O)c2cc(NC(=O)Nc3ccc4c(c3)OCO4)ccc2O1 | inactive | inactive
6 | O=C(C[C@@H]1C[C@H]2c3cc(NC(=O)c4ccc5c(c4)OCO5)ccc3O[C@H]2[C@@H](CO)O1)NCc1ccccn1 | inactive | inactive
7 | COc1ccccc1S(=O)(=O)N[C@H]1C=C[C@H](CC(=O)N2CCOCC2)O[C@@H]1CO | inactive | inactive
8 | COc1ccc(NC(=O)Nc2ccc3c(c2)CC(=O)N([C@@H](C)CO)C[C@@H](C)[C@H](CN(C)C(=O)Nc2cccc4ccccc24)O3)cc1 | inactive | inactive
9 | Cc1ccc(S(=O)(=O)Nc2ccc3c(c2)C(=O)N([C@H](C)CO)C[C@H](C)[C@@H](CN(C)Cc2ccc(Cl)c(Cl)c2)OCCCC[C@H](C)O3)cc1 | inactive | inactive
10 | CO[C@H]1CN(C)C(=O)c2ccc(NS(C)(=O)=O)cc2OC[C@@H](C)N(C(=O)C2CCOCC2)C[C@@H]1C | inactive | inactive
11 | C[C@H]1CN([C@@H](C)CO)S(=O)(=O)c2ccc(C#Cc3ccccc3)cc2O[C@@H]1CN(C)C(=O)Cc1ccccn1 | inactive | inactive
12 | C[C@@H]1CN([C@@H](C)CO)C(=O)c2cccc(NS(=O)(=O)c3cccs3)c2O[C@H]1CN(C)Cc1ccc(Cl)c(Cl)c1 | inactive | inactive
13 | C[C@@H]1CN([C@@H](C)CO)C(=O)c2cccc(NC(=O)c3ccc(-c4nccs4)cc3)c2O[C@@H]1CN(C)Cc1ccc(Oc2ccccc2)cc1 | inactive | inactive
14 | CNC(=O)C[C@H]1CC[C@@H]2[C@H](COC[C@H](O)CN2C(=O)Nc2cccc(OC)c2)O1 | inactive | inactive
15 | Cc1noc(C)c1S(=O)(=O)Nc1ccc2c(c1)C(=O)N([C@@H](C)CO)C[C@@H](C)[C@@H](CN(C)S(=O)(=O)c1ccc(F)cc1)O2 | inactive | inactive
16 | C[C@H](CO)N1C[C@H](C)[C@@H](CN(C)Cc2ccc(Cl)c(Cl)c2)Oc2c(NC(=O)Nc3ccc(F)cc3)cccc2C1=O | active | inactive
17 | C[C@H](CO)N1C[C@H](C)[C@H](CN(C)C(=O)CN2CCOCC2)Oc2ncc(C3=CCCCC3)cc2C1=O | inactive | inactive
18 | O=C1N(Cc2ccccc2)Cc2ccccc2[C@H]2OC(c3ccc(OCCCO)cc3)=N[C@@]12Cc1ccccc1 | inactive | inactive
19 | Cc1cccn2c(=O)c3cc(S(=O)(=O)c4ccc(Br)cc4)c(=N)n(CCCN4CCOCC4)c3nc12 | inactive | inactive
20 | CC(C)(C)NCC(O)c1cc(O)cc(O)c1.O=S(=O)(O)O (centres undefined) | inactive | inactive
21 | O=C(O)c1cc2n(n1)CCC2 | inactive | inactive
22 | C[C@@H]1CN([C@@H](C)CO)C(=O)Cc2cc(NC(=O)CCN3CCOCC3)ccc2O[C@@H]1CN(C)S(=O)(=O)c1cccs1 | inactive | inactive
23 | O=C(O)c1ccc(-c2ccccc2)cc1 | inactive | inactive
24 | COc1ccc(NC(=O)N(C)C[C@H]2OCCCC[C@H](C)Oc3ccc(NS(=O)(=O)c4cccs4)cc3C(=O)N([C@@H](C)CO)C[C@@H]2C)cc1 | inactive | inactive
25 | CO[C@H]1CN(C)C(=O)c2cc(NC(=O)NC3CCCCC3)ccc2OC[C@@H](C)N(CCc2ccccc2)C[C@H]1C | inactive | inactive
26 | Cc1ccc(S(=O)(=O)Nc2ccc3c(c2)C(=O)N([C@H](C)CO)C[C@H](C)[C@H](CN(C)S(=O)(=O)c2ccc(Cl)cc2)OCCCC[C@H](C)O3)cc1 | inactive | inactive
27 | C[C@H](CO)N1C[C@H](C)[C@H](CN(C)C(=O)NC2CCCCC2)OCCCC[C@H](C)Oc2ccc(NC(=O)Nc3ccccc3)cc2C1=O | inactive | inactive
